Measured values from PubChem BioAssay AID1466 (National Center for Advancing Translational Sciences (NCATS), 2008).
The campaign covered roughly 200,000 compounds. About 10 (0.005%) were called active. This list was built around the results that the source calls inconclusive (neither active nor inactive); the mix of calls is not that of the screen. Calls come from the whole dose curve; as a rule, active = well fitted inhibition curve with a large enough effect; inconclusive = small, poorly fitted or top-dose-only effect, or effect the other way, or another doubt; inactive = no such curve, though single readings can be large or run the other way. Potencies of inconclusive entries are left out as doubtful fits.

target: Lysosomal alpha-glucosidase (Homo sapiens) (UniProt P10253); test: qHTS Assay for Inhibitors of Human alpha-Glucosidase as a Potential Chaperone Treatment of Pompe Disease; conditions: purified human GAA, 4-MU-alpha-glucoside fluorescence; activity change, negative = inhibition: at 76.9 µM (top of the series) unless noted;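 for activity change, negative = inhibition: plate controls were uninhibited enzyme wells for no effect and no-enzyme background for full effect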
How it was run: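 Endpoint fluorogenic read: 20 min room-temperature reaction of 4 nM human alpha-glucosidase with 400 uM 4-methylumbelliferyl-alpha-D-pyranoside, pH 5.0, quenched with 1M NaOH/1M glycine pH 10. AC50 from Hill modeling.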
Potency is the fitted concentration of half-maximal effect; tags give direction and shape of the fitted curve.

Question: With `Cc1cc(NC(=O)CCCn2nc([N+](=O)[O-])c(Br)c2C)no1` as the compound, how does the Potency read?
Answer: Its Potency is inconclusive [inhibitor, single point].

Question: How did the Potency turn out when `CC1=C(C(=O)OCc2ccccc2)C(c2ccco2)C2=C(CC(C)(C)CC2=O)N1` (centres undefined) was run?
Answer: Its Potency is inconclusive [inhibitor, single point].

Question: `C=CCN1C(=O)C(C)(C)N(C(C)=O)c2ccccc21` was tested. Which Potency did it give?
Answer: Its Potency is inconclusive [inhibitor, partial curve, poor fit].

Question: How did the activity change, negative = inhibition turn out when `CCOC(=O)N1CCN(CC(O)COc2ccc(OC)cc2C(C)(C)C)CC1` (centres undefined) was run?
Answer: The activity change, negative = inhibition was inconclusive: -15.6% [inhibitor].

Question: With `COC(=O)C1C(=O)c2c([nH]c(C(=O)OCCOC(C)C)c2C)CC1C` (centres undefined) as the compound, how does the Potency read?
Answer: The Potency was inconclusive [inhibitor, single point].

Question: With `Cc1onc(-c2ccccc2Cl)c1C(=O)Nc1ccc(S(=O)(=O)N2CCCC2)cc1` as the compound, how does the Potency read?
Answer: Its Potency is inconclusive [inhibitor, single point].

Question: Which Potency does the source give for `O=[N+]([O-])c1ccc(N/N=C/c2sc(N3CCOCC3)nc2-c2ccccc2)c(S(=O)(=O)Nc2ccc(Cl)cc2)c1` here?
Answer: The Potency was inconclusive [inhibitor, full curve].

Question: For `CN(C)c1ccc(/C=N/Nc2ccc(-n3ccnc3)nn2)cc1`, which activity change, negative = inhibition is on record?
Answer: The activity change, negative = inhibition was inconclusive: -16.5% [inhibitor].

Question: For `Cc1ccc2nc(/C(C#N)=C\c3ccc([N+](=O)[O-])o3)[nH]c2c1`, which Potency is on record?
Answer: Its Potency is inconclusive [inhibitor, single point].

Question: `CCn1c(O)c(/C=C/C=C/C=Nc2ccccc2)sc1=S` was tested. Which Potency did it give?
Answer: The Potency was inconclusive [inhibitor, single point].

Question: For `NC(=O)c1ccc(N2CCCCCC2)c([N+](=O)[O-])c1`, which Potency is on record?
Answer: The Potency was inconclusive [inhibitor, single point].

Question: For `CCN1C(=O)c2cccc3c(S(=O)(=O)Nc4ccncc4)ccc1c23`, which “activity change, negative = inhibition” value is on record?
Answer: The value was inactive: -6.22%.

Question: Which activity change, negative = inhibition does the source give for `CCOC(=O)c1cc2c(=O)n3ccccc3nc2n(CC(C)C)c1=NC(=O)c1ccco1` here?
Answer: Its activity change, negative = inhibition is inconclusive: 18.9% [activator].

Question: How did the Potency turn out when `COc1ccc(/C=N/NC(=O)CNC(=O)c2ccc(S(=O)(=O)N3CCCC3)cc2)c(OC)c1` was run?
Answer: Its Potency is inconclusive [inhibitor, partial curve].

Question: With `CC(C)(C)c1ccc(/C([O-])=C(/C(=S)NCc2ccco2)[n+]2ccccc2)cc1` as the compound, how does the “activity change, negative = inhibition” value read?
Answer: Its value is inactive: 1.25%.

Question: For `C=CCn1c(SCC(=O)OCc2ccccc2)nc2c1c(=O)n(C)c(=O)n2C`, which activity change, negative = inhibition is on record?
Answer: Its activity change, negative = inhibition is inconclusive: 16.8% [activator].

Question: `CCCCOC(=O)c1[nH]c2c(c1C)C(=O)CC(c1cc(OC)c(OC)c(OC)c1)C2` (centres undefined) was tested. Which Potency did it give?
Answer: The Potency was inconclusive [inhibitor, single point].

Question: Which activity change, negative = inhibition does the source give for `COc1ccc(S(=O)(=O)N2CCN(C(=O)c3cccs3)CC2)cc1` here?
Answer: The activity change, negative = inhibition was inconclusive: -17.6% [inhibitor].

Question: `N#Cc1c(-c2ccc3c(c2)OCO3)ccn2nc(-c3cccc(C(F)(F)F)c3)nc12` was tested. Which Potency did it give?
Answer: The Potency was inconclusive [inhibitor, single point].

Question: Which Potency does the source give for `COc1cc2c(-c3ccc(O)cc3)nc3c(c(C)nn3-c3ccccc3)c2cc1OC` here?
Answer: Its Potency is inconclusive [activator, single point].

Question: `O=c1c2cc(NC(=S)N3CCCC3)ccc2nc2n1CCCCC2` was tested. Which Potency did it give?
Answer: Its Potency is inconclusive [inhibitor, single point].

Question: Which Potency does the source give for `COC(=O)C(Cc1ccc(OC(=O)c2ccc(Cl)cc2)cc1)N1Cc2ccccc2C1=O` (centres undefined) here?
Answer: Its Potency is inconclusive [inhibitor, single point].

Question: With `O=C(O)c1cc(-c2ccco2)nc2ccc(Br)cc12` as the compound, how does the Potency read?
Answer: The Potency was inconclusive [activator, full curve].

Question: Which Potency does the source give for `CN1N=C2c3ccccc3CCC2C1c1ccc(Cl)cc1` (centres undefined) here?
Answer: Its Potency is inconclusive [inhibitor, single point].

Question: How did the Potency turn out when `CCOc1ccc(CCNC(=O)CCn2cccc2)cc1OCC` was run?
Answer: Its Potency is inconclusive [inhibitor, partial curve].

Question: Which Potency does the source give for `Cn1c(=O)[nH]c(=O)c2c1nc(CN1CCOCC1)n2Cc1ccc(F)cc1` here?
Answer: The Potency was inconclusive [inhibitor, single point].

Question: Which Potency does the source give for `Cc1nnc(SCC(=O)NC2CCCCC2)n1C1CCCCC1` here?
Answer: Its Potency is inconclusive [activator, partial curve, poor fit].

Question: With `COc1cc(NC(=O)C/C(C)=N/NC(=O)c2cccs2)c(OC)cc1Cl` as the compound, how does the Potency read?
Answer: The Potency was inconclusive [inhibitor, single point].

Question: For `COC(=O)C1=C(C)NC2=C(C(=O)CCC2)C1c1cn(Cc2ccc(Cl)cc2Cl)nc1-c1ccccc1` (centres undefined), which Potency is on record?
Answer: The Potency was inconclusive [activator, single point].

Question: With `CCCC(=O)Oc1ccc2c(C)cc(=O)oc2c1` as the compound, how does the Potency read?
Answer: The Potency was inconclusive [activator, partial curve].

Question: `CCC[n+]1c(C)sc2c3c(ccc21)CCCC3` was tested. Which activity change, negative = inhibition did it give?
Answer: Its activity change, negative = inhibition is inconclusive: 13.7% [activator].

Question: Which Potency does the source give for `Cc1cccc(NC(=S)N/N=C/c2ccc([N+](=O)[O-])s2)c1` here?
Answer: Its Potency is inconclusive [inhibitor, single point].

Question: For `CCOC(=O)CNC(=O)CSc1nnc(SCC(=O)NCC(=O)OCC)s1`, which Potency is on record?
Answer: Its Potency is inconclusive [inhibitor, single point].

Question: How did the activity change, negative = inhibition turn out when `COc1cccc(-c2nc(NC(C)(C)C)c3ccccc3n2)c1O` was run?
Answer: The activity change, negative = inhibition was inconclusive: -16% [inhibitor].

Question: `O=C(Cc1ccc(Cl)cc1)Nc1ccc(C(=O)N2CCOCC2)cc1` was tested. Which Potency did it give?
Answer: The Potency was inconclusive [inhibitor, single point].

Question: With `O=C(O)Cn1c(=S)sc2ccccc21` as the compound, how does the activity change, negative = inhibition read?
Answer: Its activity change, negative = inhibition is inconclusive: 12.6% [activator].

Question: Which Potency does the source give for `COc1cccc2c(C)c(C(=O)O)[nH]c12` here?
Answer: The Potency was inconclusive [inhibitor, single point].

Question: Which activity change, negative = inhibition does the source give for `CCn1c(NC(=O)C(C)C)c2ccccc2nc1=O` here?
Answer: The activity change, negative = inhibition was inconclusive: 15.4% [activator].

Question: `COc1ccc(N=C2S/C(=C\c3cc(C)n(C)c3C)C(=O)N2C)cc1` was tested. Which Potency did it give?
Answer: The Potency was inconclusive [inhibitor, partial curve].

Question: How did the Potency turn out when `CCOC(=O)CSc1nc(N)nc(C)c1Br` was run?
Answer: Its Potency is inconclusive [inhibitor, single point].

Question: Which Potency does the source give for `Cc1nc(SCC(N)=O)[nH]c(=O)c1Cc1ccc(OC(C)C)cc1` here?
Answer: Its Potency is inconclusive [inhibitor, full curve, poor fit].

Question: How did the Potency turn out when `CC(C)(CC(=O)O)CC(=O)NCc1c(Cl)cccc1Oc1ccccc1` was run?
Answer: Its Potency is inconclusive [inhibitor, partial curve, poor fit].

Question: Which activity change, negative = inhibition does the source give for `C=CCc1cccc(CNc2nc3ccccc3n2CC)c1O` here?
Answer: Its activity change, negative = inhibition is inconclusive: -15.8% [inhibitor].

Question: How did the Potency turn out when `COc1cc(OC)cc(C(=O)N(Cc2nc(-c3cccc(C)c3)no2)C(C)C)c1` was run?
Answer: The Potency was inconclusive [inhibitor, partial curve].

Question: With `Cc1c(C=O)c(Cl)n(C)c(=O)c1C#N` as the compound, how does the “activity change, negative = inhibition” value read?
Answer: The value was inactive: 9.12%.

Question: Which activity change, negative = inhibition does the source give for `CCCn1nc(Oc2nc(N(C)C)nc(N(C)C)n2)ccc1=O` here?
Answer: Its activity change, negative = inhibition is inconclusive: 7.71% [activator].

Question: With `CCOC(=O)Cc1csc(NC(=O)CSc2nnc(-n3nc(C)cc3C)c3ccccc23)n1` as the compound, how does the Potency read?
Answer: The Potency was inconclusive [inhibitor, full curve, poor fit].

Question: For `CCOC(=O)c1cnc2cc(C)ccn2c1=O`, which Potency is on record?
Answer: Its Potency is inconclusive [activator, partial curve].

Question: Which Potency does the source give for `C(=N\n1cnnc1)/c1ccccc1OCCOc1ccccc1` here?
Answer: Its Potency is inconclusive [inhibitor, single point].

Question: With `O=C(CSC1=N/C(=C/c2ccc(Cl)c(Cl)c2)C(=O)N1c1ccccc1F)NC1CC1` as the compound, how does the activity change, negative = inhibition read?
Answer: The activity change, negative = inhibition was inconclusive: 20.5% [activator].

Question: How did the Potency turn out when `Cc1ccc2[nH]c(=O)c3cc(C(=O)NCCN4CCN(C)CC4)sc3c2c1` was run?
Answer: The Potency was inconclusive [activator, single point].

Question: For `O=C(NNC(=O)C1CCC(C(=O)NNC(=O)c2cccs2)CC1)c1cccs1` (centres undefined), which activity change, negative = inhibition is on record?
Answer: Its activity change, negative = inhibition is inconclusive: 15.3% [activator].

Question: Which activity change, negative = inhibition does the source give for `CCc1n(CC(O)COCC2CC=CCC2)c2ccccc2[n+]1C` (centres undefined) here?
Answer: Its activity change, negative = inhibition is inconclusive: 16.2% [activator].

Question: For `CC(=O)Nc1ccc(S(=O)(=O)N2CCC(n3cnc4cc(F)ccc43)CC2)cc1`, which activity change, negative = inhibition is on record?
Answer: Its activity change, negative = inhibition is inconclusive: -17.4% [inhibitor].

Question: How did the activity change, negative = inhibition turn out when `CCOc1cc(NC(=S)Nc2ccc(Cl)cc2)c(OCC)cc1NC(C)=O` was run?
Answer: The activity change, negative = inhibition was inconclusive: 15.2% [activator].

Question: How did the Potency turn out when `CCC/C=C(\CCC)C(NC(=O)Cc1ccccc1)c1ccc(C(=O)OC)cc1` (centres undefined) was run?
Answer: The Potency was inconclusive [inhibitor, single point].

Question: With `Cc1nc2cc(-c3cccc(F)c3)nn2c(C)c1CCC(=O)NC(C)c1ccc2c(c1)OCCO2` (centres undefined) as the compound, how does the Potency read?
Answer: The Potency was inconclusive [inhibitor, partial curve, poor fit].

Question: `O=C(Nc1cccc(NC(=O)C2C3CC4OC(=O)C2C4C3)c1)c1ccccc1` (centres undefined) was tested. Which Potency did it give?
Answer: The Potency was inconclusive [inhibitor, full curve, poor fit].

Question: Which Potency does the source give for `Cc1cccc(NS(=O)(=O)c2cc(C(=O)NCCC3=CCCCC3)ccc2Cl)c1` here?
Answer: Its Potency is inconclusive [inhibitor, full curve, poor fit].

Question: How did the activity change, negative = inhibition turn out when `O=Cc1cn(CCC(=O)O)nc1-c1cccc2ccccc12` was run?
Answer: The activity change, negative = inhibition was inconclusive: 13.6% [activator].

Question: With `Cc1cc(C)nc(SCc2cc(=O)c(OC(=O)c3cccc([N+](=O)[O-])c3)co2)n1` as the compound, how does the Potency read?
Answer: Its Potency is inconclusive [inhibitor, full curve, poor fit].

Question: How did the activity change, negative = inhibition turn out when `COc1ccc2oc(C(=O)C3CC3)c(N)c2c1` was run?
Answer: The activity change, negative = inhibition was inconclusive: -16.7% [inhibitor].

Question: For `Cc1[nH]c2ccccc2c1C(O)c1ccncc1` (centres undefined), which “activity change, negative = inhibition” value is on record?
Answer: Its value is inactive: 4.87%.

Question: For `CCC(C)n1c(-c2cc(OC)c(OC)c(OC)c2)nc2nc3ccccc3nc21` (centres undefined), which Potency is on record?
Answer: The Potency was inconclusive [inhibitor, partial curve, poor fit].
